This is one part of the list. At the low end of the ranking, values are background and their order means little.

The test addresses T1, ETS1 (UniProt P14921).
T1 sequence: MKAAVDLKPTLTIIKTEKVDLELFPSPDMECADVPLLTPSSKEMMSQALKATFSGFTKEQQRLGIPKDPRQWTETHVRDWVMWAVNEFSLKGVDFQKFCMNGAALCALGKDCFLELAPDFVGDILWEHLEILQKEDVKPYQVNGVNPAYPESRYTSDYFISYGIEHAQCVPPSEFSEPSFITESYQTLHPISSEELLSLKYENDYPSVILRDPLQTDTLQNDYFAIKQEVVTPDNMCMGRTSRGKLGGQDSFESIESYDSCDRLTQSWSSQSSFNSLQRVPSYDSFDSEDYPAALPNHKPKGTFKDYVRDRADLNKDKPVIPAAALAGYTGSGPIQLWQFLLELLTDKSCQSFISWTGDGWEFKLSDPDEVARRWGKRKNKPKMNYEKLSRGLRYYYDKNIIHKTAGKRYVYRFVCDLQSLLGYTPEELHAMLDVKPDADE
The test can be described thus: custom PBM. The conditions noted are these: custom protein-binding microarray; buffer, salt, pH and temperature not stated; high values mean tight binding; double strand, one strand shown.
With “GGAATAAGGCCCAGGGTAACACCGGAAGTGGGCTTAGTCTTGATTCGCTTGACGCTGCTG”, the binding signal (log fluorescence intensity) was determined as 11.9. To “GTGTATAGGATCCCATCCGACACACGTGTTAAAATGGTCTTGATTCGCTTGACGCTGCTG” belongs 8.18; to “TAAAGGGAAGACAGTTGTGGTAGTTCCGGGTATTAAGTCTTGATTCGCTTGACGCTGCTG”, 8.42. Take “CACAATTTTTACAGTCATGTAGCACGCGTAACTCCTGTCTTGATTCGCTTGACGCTGCTG”: the binding signal (log fluorescence intensity) was 8.17. To “GCTGCTGCGGTGCATACCCGACCGGATGTGACCCCGGTCTTGATTCGCTTGACGCTGCTG” belongs 10.5; to “CAGCATAGGACTTTTTCCCTGAAGCAATTGATAACCGTCTTGATTCGCTTGACGCTGCTG”, 8.27; to “CGGAAGTGTCGTAAACGTCGGATATCTGGTTCTTCTGTCTTGATTCGCTTGACGCTGCTG”, 8.37. Turning to “CAGCATAGGACTTCTTCCCGGAAGCAATTGATAACCGTCTTGATTCGCTTGACGCTGCTG”, the binding signal (log fluorescence intensity) was found to be 9.98. To “CACAATTTTTACAGTAATGTAGCACGCGTATCTCCTGTCTTGATTCGCTTGACGCTGCTG” belongs 8.06; to “GCTGCTGCGGTGCATACCCCACCGGATGTGATCCCGGTCTTGATTCGCTTGACGCTGCTG”, 10.1. To “TACTGACTTATATATGCGAAAGCACATGAATAGACCGTCTTGATTCGCTTGACGCTGCTG” belongs 8.26; to “CAGTATAGGACTTCTTCCCTGAAGCAATTGATAACCGTCTTGATTCGCTTGACGCTGCTG”, 8.22; to “GATTAATTTCTGCCCTTATTCGCACGTCCCATAACAGTCTTGATTCGCTTGACGCTGCTG”, 8.26. To “TAAAGGGAAGACGGTTGTGGTAGTTCCGGGTCTTAAGTCTTGATTCGCTTGACGCTGCTG” belongs 8.36. On to “GATTAATTTCTGCCCTTATTCGCACGTGCAATAACAGTCTTGATTCGCTTGACGCTGCTG”, for which the binding signal (log fluorescence intensity) was 8.3. To “TAAAGGGAAGACGGTTGTGGTAGTTCCCGGTATTAAGTCTTGATTCGCTTGACGCTGCTG” belongs 8.32. Take “CGGAAGTGTCGTAAACGTCGGATATCCCGTTCTTCTGTCTTGATTCGCTTGACGCTGCTG”: the binding signal (log fluorescence intensity) came to 8.7. The result for “TACTGACTTATATCTGCGAATGCACATGAATAGACCGTCTTGATTCGCTTGACGCTGCTG” reads 8.21; that for “TAAGGGGAAGACGGTTGTGGTAGTTCCGGGTATTAAGTCTTGATTCGCTTGACGCTGCTG”, 8.71; that for “TAAAGGGAAGACGATTGTGGTAGTTCCGGGTATTAAGTCTTGATTCGCTTGACGCTGCTG”, 8.5. The result for “GATTAATTTCTGCCCTTATTCGAACGTGCCATAACAGTCTTGATTCGCTTGACGCTGCTG” reads 8.42; that for “GTGTATAGTATCCCATCCAACACACGTGTTAAAATGGTCTTGATTCGCTTGACGCTGCTG”, 8.16; that for “CAGCATAGGACTTCGTCCCTGAAGCAATTGATAACCGTCTTGATTCGCTTGACGCTGCTG”, 8.36. The result for “TCCGGCTACCAGCTCCACCCACTTCAGGCATTGTAGGTCTTGATTCGCTTGACGCTGCTG” reads 8.34; that for “TAAAGGGAAGACGGTTGTGGAAGTTCCGGGTATTAAGTCTTGATTCGCTTGACGCTGCTG”, 8.76; that for “TGTCGGGTAGGGGAATGTAGATCACGTGAATGAAAAGTCTTGATTCGCTTGACGCTGCTG”, 8.11. Consider “GCTGCTGGGGTGCATACCCCACCGGATGTGACCCCGGTCTTGATTCGCTTGACGCTGCTG”, for which the binding signal (log fluorescence intensity) is 10.3. The result for “TACTCACTTATATATGCGAATGCACATGAATAGACCGTCTTGATTCGCTTGACGCTGCTG” reads 8.35; that for “CAGCATAGGACTTCTTCCCTGAGGCAATTGATAACCGTCTTGATTCGCTTGACGCTGCTG”, 8.02. To “GTGTATAGGATCCCATCCAACATACGTGTTAAAATGGTCTTGATTCGCTTGACGCTGCTG” belongs 8.21; to “TACTGACTTATATAAGCGAATGCACATGAATAGACCGTCTTGATTCGCTTGACGCTGCTG”, 8.41; to “GGAAAAAGGCCCAGGGTAACACCGGAAGTGGGCCTAGTCTTGATTCGCTTGACGCTGCTG”, 12.1. To “CGGAAGTGTCGTAAACGTCGGATATCAGGTTCTTCTGTCTTGATTCGCTTGACGCTGCTG” belongs 8.51. With “TACTGACTTATATATGCGAATGCACATGCATAGACCGTCTTGATTCGCTTGACGCTGCTG”, the binding signal (log fluorescence intensity) was 8.06. “TGTCGGGTAAGGGAATGTAGATCAAGTGAATGAAAAGTCTTGATTCGCTTGACGCTGCTG”: the binding signal (log fluorescence intensity) was determined as 8.26. To “TTCTGACTTATATATGCGAATGCACATGAATAGACCGTCTTGATTCGCTTGACGCTGCTG” belongs 8.11; to “TAAAGGGAAGACGGTTGTGGTAGTTCCAGGTATTAAGTCTTGATTCGCTTGACGCTGCTG”, 8.13. As to “GCTGCTGCGGTGCATACCCCACCGGATATGACCCCGGTCTTGATTCGCTTGACGCTGCTG”, the binding signal (log fluorescence intensity) came to 9.71.

As for “TACAGACTTATATATGCGAATGCACATGAATAGACCGTCTTGATTCGCTTGACGCTGCTG”, the binding signal (log fluorescence intensity) was determined as 8.43. For the sequence “TACTGACTTATATATGCGAATGCACATGTATAGACCGTCTTGATTCGCTTGACGCTGCTG”, the binding signal (log fluorescence intensity) amounted to 8.25. As to “GATTAATTTCTGCCGTTATTCGCACGTGCCATAACAGTCTTGATTCGCTTGACGCTGCTG”, the binding signal (log fluorescence intensity) worked out at 8.2.

Regarding “GCTGCTGCTGTGCATACCCCACCGGATGTGACCCCGGTCTTGATTCGCTTGACGCTGCTG”, the binding signal (log fluorescence intensity) turned out to be 9.42. The result for “TCCGGGTACCAGCTCCACCCACTTCAGGCCTTGTAGGTCTTGATTCGCTTGACGCTGCTG” reads 8.28. The result for “TAAAGGGAAGACGGTTGTGGTAGTTGCGGGTATTAAGTCTTGATTCGCTTGACGCTGCTG” reads 8.38; that for “GTGTATAGGATCCCATCCAACACATGTGTTAAAATGGTCTTGATTCGCTTGACGCTGCTG”, 8.29. As to “GTGTATAGGATCCCATCCAACACACGTGTTCAAATGGTCTTGATTCGCTTGACGCTGCTG”, the binding signal (log fluorescence intensity) turned out to be 8.26. The result for “GCTGCTGCGGTGCATACCCCACCGGATGTGACCCAGGTCTTGATTCGCTTGACGCTGCTG” reads 10.3.

For “GACTGACTTATATATGCGAATGCACATGAATAGACCGTCTTGATTCGCTTGACGCTGCTG”, the binding signal (log fluorescence intensity) came out at 8.26.

On to “TACTGACTTATATATGCGAATGCACATTAATAGACCGTCTTGATTCGCTTGACGCTGCTG”, for which the binding signal (log fluorescence intensity) turned out to be 8.25. To “TACTGACTTATATATGCGAATGCACATGAATAGAACGTCTTGATTCGCTTGACGCTGCTG” belongs 8.15; to “TACTGACTTATATATGCGAATGCACATGAATAGACAGTCTTGATTCGCTTGACGCTGCTG”, 8.29. To “CATTAATTTCTGCCCTTATTCGCACGTGCCATAACAGTCTTGATTCGCTTGACGCTGCTG” belongs 8.25.
